# From the supplement of paper PMC12217912
# This is one part of the list. The full chains were built here from the parent and the listed change. Values near 0.05 are background.
# B1: TEV protease; numbered along this chain (parent)
# chain: MGESLFKGPRDYNPISSSICHLTNESDGHTTSLYGIGFGPFIITNKHLFRRNNGTLVVQSLHGVFKVKDTTTLQQHLVDGRDMIIIRMPKDFPPFPQKLKFREPQREERICLVTTNFQTKSMSSMVSDTSCTFPSGDGIFWKHWIQTKDGQCGSPLVSTRDGFIVGIHSASNFTNTNNYFTSVPKNFMELLTNQEAQQWVSGWRLNADSVLWGGHKVFMVKPEEPFQPVKEATQL
# Variants of: B1
# Test: raw area under fraction-flipped curve 0-4 h after induction (AUC4h, not background-subtracted), DNA-recorder readout of cleavage of the substrate (dimensionless); higher = more cleavage of the substrate by the protease variant
# Settings: temperature: 34 °C; time window: 0-4 h after rhamnose induction
# Description: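 In vivo DNA recorder in E. coli TOP10(DE3) ΔrhaA at 34 °C. Each TEVp single-site mutant (parent TEVp 0) is paired with a single-site variant of the 7-mer TEVs (canonical ENLYFQ|S). The substrate sits between flexible linkers in a Bxb1-sfGFP-TEVs-SsrA fusion, so cleavage stabilises Bxb1 and speeds flipping of a recombination array, read by NGS. The value is the raw area under the fraction-flipped curve over 0-4 h after rhamnose induction (AUC4h), with ≥20 reads per time point. It is not background-subtracted; inactive controls average about 0.047.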
# 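Further: Bxb1 expression induced with 0.2% (w/v) L-rhamnose at OD600 near 0.5, cultures sampled hourly, flipped fraction per protease–substrate barcode pair counted by paired-end Illumina sequencing.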
variant,measurement,value
T114W,area with substrate ENLYAQS,0.0771
same,area with substrate ENLYCQS,0.0602
same,area with substrate ENLYDQS,0.0571
same,area with substrate ENLYEQS,0.0562
same,area with substrate ENLYGQS,0.0653
same,area with substrate ENLYHQS,0.0554
same,area with substrate ENLYKQS,0.0625
same,area with substrate ENLYLQS,0.0756
same,area with substrate ENLYMQS,0.0907
same,area with substrate ENLYNQS,0.0614
same,area with substrate ENLYPQS,0.103
same,area with substrate ENLYQQS,0.0539
same,area with substrate ENLYRQS,0.0624
same,area with substrate ENLYSQS,0.0757
same,area with substrate ENLYTQS,0.0878
same,area with substrate ENLYVQS,0.106
same,area with substrate ENLYWQS,0.0787
same,area with substrate ENLYYQS,0.0711
T114A,area with substrate ENLYAQS,0.0713
same,area with substrate ENLYCQS,0.0829
same,area with substrate ENLYDQS,0.0625
same,area with substrate ENLYEQS,0.0615
same,area with substrate ENLYGQS,0.0511
same,area with substrate ENLYHQS,0.0619
same,area with substrate ENLYIQS,0.124
same,area with substrate ENLYKQS,0.0787
same,area with substrate ENLYMQS,0.0604
same,area with substrate ENLYNQS,0.0908
same,area with substrate ENLYPQS,0.0725
same,area with substrate ENLYQQS,0.0711
same,area with substrate ENLYRQS,0.0701
same,area with substrate ENLYSQS,0.0784
same,area with substrate ENLYYQS,0.0525
I164N,area with substrate ENLYAQS,0.0529
same,area with substrate ENLYCQS,0.0708
same,area with substrate ENLYDQS,0.0598
same,area with substrate ENLYEQS,0.0522
same,area with substrate ENLYHQS,0.0546
same,area with substrate ENLYKQS,0.0683
same,area with substrate ENLYMQS,0.0641
same,area with substrate ENLYNQS,0.0375
same,area with substrate ENLYPQS,0.0536
same,area with substrate ENLYQQS,0.0523
same,area with substrate ENLYSQS,0.0438
same,area with substrate ENLYTQS,0.0733
same,area with substrate ENLYVQS,0.0475
same,area with substrate ENLYWQS,0.0606
S124T,area with substrate ENLYAQS,0.067
same,area with substrate ENLYGQS,0.104
same,area with substrate ENLYHQS,0.0594
same,area with substrate ENLYIQS,0.143
same,area with substrate ENLYKQS,0.0258
same,area with substrate ENLYNQS,0.0558
same,area with substrate ENLYQQS,0.0635
same,area with substrate ENLYRQS,0.0804
same,area with substrate ENLYSQS,0.0739
same,area with substrate ENLYVQS,0.101
same,area with substrate ENLYWQS,0.0775
same,area with substrate ENLYYQS,0.0467
L73W,area with substrate ENLYAQS,0.0971
same,area with substrate ENLYCQS,0.0586
same,area with substrate ENLYHQS,0.0613
same,area with substrate ENLYKQS,0.0416
same,area with substrate ENLYLQS,0.0678
same,area with substrate ENLYMQS,0.0634
same,area with substrate ENLYNQS,0.0574
same,area with substrate ENLYRQS,0.0597
same,area with substrate ENLYVQS,0.0822
F6M,area with substrate ENLYAQS,0.0886
same,area with substrate ENLYDQS,0.0522
same,area with substrate ENLYEQS,0.0624
same,area with substrate ENLYGQS,0.0708
same,area with substrate ENLYKQS,0.0634
same,area with substrate ENLYMQS,0.0838
same,area with substrate ENLYNQS,0.075
same,area with substrate ENLYRQS,0.0621
same,area with substrate ENLYVQS,0.0775
same,area with substrate ENLYWQS,0.106
I84F,area with substrate ENLYAQS,0.0476
same,area with substrate ENLYDQS,0.0558
same,area with substrate ENLYGQS,0.0638
same,area with substrate ENLYKQS,0.0518
same,area with substrate ENLYMQS,0.0569
same,area with substrate ENLYNQS,0.0552
same,area with substrate ENLYPQS,0.0614
same,area with substrate ENLYQQS,0.0615
same,area with substrate ENLYRQS,0.035
same,area with substrate ENLYSQS,0.0515
same,area with substrate ENLYVQS,0.064
same,area with substrate ENLYWQS,0.0542
L77E,area with substrate ENLYAQS,0.0732
same,area with substrate ENLYCQS,0.0682
same,area with substrate ENLYDQS,0.0683
same,area with substrate ENLYGQS,0.0578
same,area with substrate ENLYHQS,0.0538
same,area with substrate ENLYKQS,0.058
same,area with substrate ENLYLQS,0.0564
same,area with substrate ENLYMQS,0.0621
same,area with substrate ENLYPQS,0.0563
same,area with substrate ENLYQQS,0.0648
same,area with substrate ENLYRQS,0.0385
same,area with substrate ENLYSQS,0.0707
same,area with substrate ENLYTQS,0.0601
same,area with substrate ENLYVQS,0.0586
same,area with substrate ENLYWQS,0.0576
same,area with substrate ENLYYQS,0.0562
T129C,area with substrate ENLYAQS,0.077
same,area with substrate ENLYDQS,0.0684
same,area with substrate ENLYEQS,0.0649
same,area with substrate ENLYGQS,0.0741
same,area with substrate ENLYHQS,0.0652
same,area with substrate ENLYIQS,0.0918
same,area with substrate ENLYKQS,0.0718
same,area with substrate ENLYMQS,0.0843
same,area with substrate ENLYNQS,0.07
same,area with substrate ENLYQQS,0.0681
same,area with substrate ENLYRQS,0.0683
same,area with substrate ENLYSQS,0.0571
same,area with substrate ENLYVQS,0.098
same,area with substrate ENLYWQS,0.0458
M83G,area with substrate ENLYAQS,0.0465
same,area with substrate ENLYEQS,0.0511
same,area with substrate ENLYGQS,0.0427
same,area with substrate ENLYHQS,0.0562
same,area with substrate ENLYIQS,0.0545
same,area with substrate ENLYKQS,0.0505
same,area with substrate ENLYNQS,0.0604
same,area with substrate ENLYQQS,0.0668
same,area with substrate ENLYRQS,0.0485
same,area with substrate ENLYTQS,0.0327
same,area with substrate ENLYVQS,0.0647
same,area with substrate ENLYWQS,0.0378
same,area with substrate ENLYYQS,0.0618
L156C,area with substrate ENLYAQS,0.0853
same,area with substrate ENLYCQS,0.101
same,area with substrate ENLYDQS,0.0728
same,area with substrate ENLYEQS,0.0572
same,area with substrate ENLYGQS,0.0683
same,area with substrate ENLYHQS,0.0689
same,area with substrate ENLYKQS,0.0726
same,area with substrate ENLYLQS,0.116
same,area with substrate ENLYPQS,0.0677
same,area with substrate ENLYQQS,0.0509
same,area with substrate ENLYSQS,0.077
same,area with substrate ENLYVQS,0.114
same,area with substrate ENLYWQS,0.104
S154L,area with substrate ENLYAQS,0.0788
same,area with substrate ENLYCQS,0.13
same,area with substrate ENLYEQS,0.0681
same,area with substrate ENLYGQS,0.0628
same,area with substrate ENLYHQS,0.0839
same,area with substrate ENLYKQS,0.0679
same,area with substrate ENLYMQS,0.121
same,area with substrate ENLYNQS,0.105
same,area with substrate ENLYPQS,0.117
same,area with substrate ENLYQQS,0.0784
same,area with substrate ENLYSQS,0.0735
same,area with substrate ENLYVQS,0.205
same,area with substrate ENLYWQS,0.0972
same,area with substrate ENLYYQS,0.0774
G153P,area with substrate ENLYAQS,0.0505
same,area with substrate ENLYDQS,0.0584
same,area with substrate ENLYEQS,0.053
same,area with substrate ENLYGQS,0.0523
same,area with substrate ENLYHQS,0.0386
same,area with substrate ENLYIQS,0.0351
same,area with substrate ENLYKQS,0.0135
same,area with substrate ENLYMQS,0.0487
same,area with substrate ENLYNQS,0.0468
same,area with substrate ENLYQQS,0.091
same,area with substrate ENLYVQS,0.0493
same,area with substrate ENLYWQS,0.0531
I36F,area with substrate ENLYAQS,0.075
same,area with substrate ENLYDQS,0.0545
same,area with substrate ENLYEQS,0.062
same,area with substrate ENLYGQS,0.0537
same,area with substrate ENLYHQS,0.0707
same,area with substrate ENLYIQS,0.0997
same,area with substrate ENLYKQS,0.0263
same,area with substrate ENLYNQS,0.0628
same,area with substrate ENLYPQS,0.0676
same,area with substrate ENLYQQS,0.0606
same,area with substrate ENLYRQS,0.0629
same,area with substrate ENLYVQS,0.0968
